Results reported in the supplement of paper PMC11181314.
The other results are listed elsewhere or left out. Single values of this set are uncertain.

system: U2OS; test: Cell Painting induction (percent of morphological features significantly changed vs DMSO); higher = stronger morphological change; conditions: 10 µM; 20 h; run: confirmation repeat
Protocol: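 Cell Painting assay in U2OS cells: compounds at 10 µM for 20 h, six dyes, 579 robust CellProfiler features as Z-scores vs DMSO median (MAD). Induction is the % of significantly changed features (active if ≥5%); relative cell count is in % of DMSO. The primary run holds DCM compounds preselected for induction ≥10%; the confirmation repeat defines active compounds (370 of 549). Replicate agreement is low, attributed to precipitation.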
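Also: stains mark DNA, RNA and nucleoli, ER, actin, Golgi, plasma membrane and mitochondria, read by high-content imaging, with DMSO controls at matching solvent concentration.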

Compound | Cell Painting induction
CCN1CCN(C(c2cccs2)C(C)NC(=O)c2cccc(OC)c2)CC1 (stereo not given) | active: 13.1%
Cc1[nH]c2ccccc2c1CCN(Cc1cccnc1)C(=S)NC(C)(C)C | inactive: 1.7%
CC(C)(C)c1cc(N2CCOCC2)n2ncc(-c3ccc(Cl)cc3)c2n1 | active: 5.9%
O=C(Nc1ccc(NC(=S)NC(=O)c2cccs2)cc1)c1ccccc1 | active: 35.6%
Cc1ccc2c(c1)ncc1c(-c3ccccc3)nn(-c3cccc(F)c3)c12 | inactive: 0.2%
CCOC(=O)c1sc(NC(=O)CCN2C(=O)c3ccccc3C2=O)c(C(=O)OCC)c1C | inactive: 1.6%
COC(=O)C1=CN(CCCN2CCCC2=O)C=C(C(=O)OC)C1c1cccs1 | inactive: 0%
COc1ccc(CN2CCN(Cc3ccccc3F)CC2)c(OC)c1 | inactive: 3.3%
CCN1CCN(CCCNC(=O)c2ccc3c(=O)n(CCc4ccccc4)c(=O)[nH]c3c2)CC1 | active: 19.2%
CCN(CC)CCNC(=O)c1ccc(Sc2ccc(C)cc2)c(NC(C)=O)c1 | active: 8.8%
COc1ccc(/C=N/NC(=O)c2c(C)nc3ccc(Br)cn23)cc1OC | inactive: 1.9%
Cc1nc2sccn2c(=O)c1S(=O)(=O)NCC1CCN(Cc2ccc(Cl)cc2)CC1 | active: 44.2%
COc1ccc(N2CCN(C(=O)c3ccc4c(Cl)c5c(nc4c3)CCCC5)CC2)cc1 | inactive: 0.9%
COc1cccc(NC(=O)c2cccc(C(=O)Nc3cccc(OC)c3)c2)c1 | active: 21.6%
COCCNC(=O)C1CCN(C(=O)c2cc3sccc3n2Cc2ccc(F)cc2)CC1 | active: 13.3%
CC1CCN(CCCn2c(SCC(=O)NC3CCCC3)nc3ccccc3c2=O)CC1 | active: 12.6%
COc1ccc2nc(C)cc(Nc3ccccc3OC)c2c1 | active: 25.6%
COc1ccc(Cc2nc(-c3cc(Cl)ccc3OC)no2)cc1OC | inactive: 4.8%
CCn1cc(C(=O)NC2CCCCCC2)c(=O)c2cc(S(=O)(=O)N3CCCCC3)ccc21 | inactive: 0.3%
COc1ccc(-n2nc(C(=O)NCC(=O)NC3CCCCC3)c3ccccc3c2=O)cc1 | active: 29.9%

same assay, conditions: 10 µM; 20 h; run: primary screen (compounds selected for induction >=10%)

Compound | Cell Painting induction
CCN1CCN(C(c2cccs2)C(C)NC(=O)c2cccc(OC)c2)CC1 (stereo not given) | 26.4%
Cc1[nH]c2ccccc2c1CCN(Cc1cccnc1)C(=S)NC(C)(C)C | 20.2%
CC(C)(C)c1cc(N2CCOCC2)n2ncc(-c3ccc(Cl)cc3)c2n1 | 24.9%
O=C(Nc1ccc(NC(=S)NC(=O)c2cccs2)cc1)c1ccccc1 | 54.7%
Cc1ccc2c(c1)ncc1c(-c3ccccc3)nn(-c3cccc(F)c3)c12 | 49.6%
CCOC(=O)c1sc(NC(=O)CCN2C(=O)c3ccccc3C2=O)c(C(=O)OCC)c1C | 16.9%
COC(=O)C1=CN(CCCN2CCCC2=O)C=C(C(=O)OC)C1c1cccs1 | 12.6%
COc1ccc(CN2CCN(Cc3ccccc3F)CC2)c(OC)c1 | 11.1%
CCN1CCN(CCCNC(=O)c2ccc3c(=O)n(CCc4ccccc4)c(=O)[nH]c3c2)CC1 | 15.7%
CCN(CC)CCNC(=O)c1ccc(Sc2ccc(C)cc2)c(NC(C)=O)c1 | 13.8%
COc1ccc(/C=N/NC(=O)c2c(C)nc3ccc(Br)cn23)cc1OC | 50.3%
Cc1nc2sccn2c(=O)c1S(=O)(=O)NCC1CCN(Cc2ccc(Cl)cc2)CC1 | 39.7%
COc1ccc(N2CCN(C(=O)c3ccc4c(Cl)c5c(nc4c3)CCCC5)CC2)cc1 | 20%
COc1cccc(NC(=O)c2cccc(C(=O)Nc3cccc(OC)c3)c2)c1 | 22.5%
COCCNC(=O)C1CCN(C(=O)c2cc3sccc3n2Cc2ccc(F)cc2)CC1 | 10.7%
CC1CCN(CCCn2c(SCC(=O)NC3CCCC3)nc3ccccc3c2=O)CC1 | 16.9%
COc1ccc2nc(C)cc(Nc3ccccc3OC)c2c1 | 23.1%
COc1ccc(Cc2nc(-c3cc(Cl)ccc3OC)no2)cc1OC | 13.8%
CCn1cc(C(=O)NC2CCCCCC2)c(=O)c2cc(S(=O)(=O)N3CCCCC3)ccc21 | 24.2%
COc1ccc(-n2nc(C(=O)NCC(=O)NC3CCCCC3)c3ccccc3c2=O)cc1 | 21.2%
